The record followed here is PubChem BioAssay (NCI).

The subject of the test is NCI-H322M lung. In words: NCI tumour cell line growth inhibition, 48 h.

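Method: 48-hour compound exposure of cells in 96-well plates, five concentrations, linear interpolation of endpoints. GI50 marks 50% less growth. TGI is the concentration that stops growth completely.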

With `Cn1cc(-c2cc(N)n3nc(-c4cn(C)c5ccccc45)cc3n2)c2cc(Br)ccc21`, the GI50 was 1.82 µM and the TGI turned out to be 5.86 µM.
For `Clc1ccc2c(NCCNC34CC5CC(CC(C5)C3)C4)ccnc2c1` the same measures were 3.3 µM and 6.39 µM.
